In all, about 33,000 sequences were measured (“E-score (-0.5 to 0.5)”: median about -0.016, highest 2% from about 0.32 on). The list shows a part of the results.
molecular target: T1, Stp1 (UniProt B3LFK1); assay: PBM E-score (8-mer binding enrichment) (E-score (-0.5 to 0.5)); higher = stronger / more preferred TF binding; most listed sequences are background and not binding sites; conditions: protein concentration: 200 nM; construct: GST-full length
T1 sequence: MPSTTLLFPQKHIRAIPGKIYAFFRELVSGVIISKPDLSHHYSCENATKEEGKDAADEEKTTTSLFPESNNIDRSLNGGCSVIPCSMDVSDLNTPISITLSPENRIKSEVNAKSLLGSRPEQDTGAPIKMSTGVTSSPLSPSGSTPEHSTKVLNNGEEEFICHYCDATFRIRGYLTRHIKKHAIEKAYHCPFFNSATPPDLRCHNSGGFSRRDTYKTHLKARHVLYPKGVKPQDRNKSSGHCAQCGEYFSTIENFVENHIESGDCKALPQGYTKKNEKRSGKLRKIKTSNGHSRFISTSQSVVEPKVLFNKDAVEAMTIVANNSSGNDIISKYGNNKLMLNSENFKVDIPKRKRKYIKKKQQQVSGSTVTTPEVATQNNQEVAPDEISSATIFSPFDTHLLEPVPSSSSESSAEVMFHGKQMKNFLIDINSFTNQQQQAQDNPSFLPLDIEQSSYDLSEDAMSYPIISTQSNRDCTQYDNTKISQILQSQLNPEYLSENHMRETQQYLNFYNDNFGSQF
Outline: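 The E-score, a modified Wilcoxon-Mann-Whitney statistic, was computed by the Universal PBM Analysis Suite for every ungapped eight-base word pooled with its reverse complement. Scans behind it were normalised with masliner after bound GST-tagged yeast transcription factors were detected with fluorescent anti-GST. The proteins, at about 100-200 nM, had been applied to universal all-10-mer Agilent arrays made double-stranded by primer extension.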

Compared with ACTCCGGG, CCCTTCGC is higher in “PBM E-score” value: -0.146 for the first, -0.0851 for the second.

Compared with TCTAGCCA, AACAGTCG is higher in “PBM E-score” value: -0.00776 for the first, -0.0033 for the second.

Going from AAAGCAAC to GGGGATAA, the “PBM E-score” value falls from 0.0791 to -0.313.

Compared with CAGATGTA, AACATTAT is higher in “PBM E-score” value: -0.0377 for the first, 0.0409 for the second.

Going from AAGCACAG to GGTCTTCA, the “PBM E-score” value falls from 0.15 to -0.153.

Going from CAAGCCGA to AAATGTAT, the “PBM E-score” value rises from 0.0955 to 0.14.

Going from GCAGCCGA to GAGTGCCA, the “PBM E-score” value falls from 0.0964 to -0.0699.

Going from ATAGAGAT to ATCATATC, the “PBM E-score” value rises from 0.0979 to 0.127.

Compared with GACAATGA, AACACCCA is lower in “PBM E-score” value: -0.247 for the first, -0.259 for the second.

Going from ACATTGCG to ATTCGTGA, the “PBM E-score” value falls from 0.176 to 0.0249.

Compared with GCGCTGTA, GCACGAAA is higher in “PBM E-score” value: 0.0568 for the first, 0.326 for the second.

Compared with CGCTACTA, GCCAAGTA is lower in “PBM E-score” value: 0.0915 for the first, -0.156 for the second.

First: TGCTGACA
Second: CGCAAAAA
The “PBM E-score” value of the first is lower: 0.02 for the first, 0.223 for the second.

Going from CAAGAATC to AACAACCG, the “PBM E-score” value rises from 0.0699 to 0.104.

Compared with AAATATAT, CAGGACAC is lower in “PBM E-score” value: 0.218 for the first, -0.141 for the second.

Going from TATAATCA to ATCAACGA, the “PBM E-score” value falls from 0.225 to 0.0653.

First: GTAGAAAA
Second: TGATCTAA
The “PBM E-score” value of the first is higher: 0.189 for the first, -0.174 for the second.

Compared with AGGAGGCA, CGGATGTA is lower in “PBM E-score” value: 0.109 for the first, 0.0738 for the second.

Going from AGGCTTCC to CCCGTGAA, the “PBM E-score” value falls from 0.0665 to -0.0993.

Compared with GAATCGCC, TTGGTAAA is lower in “PBM E-score” value: 0.29 for the first, 0.203 for the second.

Going from ACAGACGG to AAATGGCC, the “PBM E-score” value falls from 0.061 to 0.0218.

First: GCTGTGGA
Second: ATGAGGCC
The “PBM E-score” value of the first is lower: -0.0422 for the first, 0.0892 for the second.

First: ACTTACGG
Second: CTTGACTC
The “PBM E-score” value of the first is higher: 0.0811 for the first, -0.246 for the second.

Going from GGTCTGAA to AGCCGATA, the “PBM E-score” value falls from -0.0714 to -0.15.

First: CCATAGAA
Second: CAAATTCC
The “PBM E-score” value of the first is higher: 0.155 for the first, 0.0321 for the second.

Compared with CACGGTTA, ACGGCGGA is higher in “PBM E-score” value: 0.241 for the first, 0.314 for the second.

Compared with AGCACGTC, AGTACCAA is higher in “PBM E-score” value: -0.0395 for the first, 0.0998 for the second.

Going from CCGGGCCC to TGCGTTAA, the “PBM E-score” value rises from -0.109 to 0.104.

First: CAAAGGGA
Second: ATACACAC
The “PBM E-score” value of the first is lower: -0.111 for the first, 0.0549 for the second.

Going from GAACAAAC to AGTCGTGG, the “PBM E-score” value falls from 0.196 to -0.227.

Going from GTATCACA to TTACAGAA, the “PBM E-score” value falls from 0.19 to -0.0909.

First: GGAATCGA
Second: AACATCAC
The “PBM E-score” value of the first is lower: -0.192 for the first, -0.0907 for the second.

Going from CTTGGCTC to AGCGGAGG, the “PBM E-score” value rises from -0.0825 to -0.0516.

Going from AAAGCTCT to AACCTATC, the “PBM E-score” value rises from -0.371 to -0.109.

First: CTTACATA
Second: CAATCGTC
The “PBM E-score” value of the first is higher: 0.2 for the first, 0.063 for the second.

First: CCGTCACA
Second: TACTTTCA
The “PBM E-score” value of the first is lower: -0.202 for the first, 0.00121 for the second.

First: ACGAAGGG
Second: GGCGTTAC
The “PBM E-score” value of the first is lower: -0.0354 for the first, 0.265 for the second.

First: ACCTTAGG
Second: ACGTAGGC
The “PBM E-score” value of the first is lower: -0.179 for the first, -0.149 for the second.

First: AGATACCG
Second: AATCTACA
The “PBM E-score” value of the first is lower: 0.123 for the first, 0.156 for the second.

First: AGTGACAC
Second: CCCTACTC
The “PBM E-score” value of the first is higher: 0.141 for the first, 0.0313 for the second.

Going from GAATCACA to AGCTTGAC, the “PBM E-score” value falls from -0.0331 to -0.16.

Compared with CCCCCTTA, GGGCCACA is higher in “PBM E-score” value: -0.35 for the first, 0.0202 for the second.

Going from ATTCGCGC to CCGTCGTC, the “PBM E-score” value falls from 0.221 to -0.0542.

Source: the supplement of paper PMC3334620
